Changes are numbered by the printed parent chain; changes in the protein carry UniProt numbers. The list shows a part of the results.

Binding signal data for nine molecules are collected here from publication PMC9911399, “Two distinct binding modes provide the RNA-binding protein RbFox with extraordinary sequence specificity”.

First the molecules themselves.
T1: RBFOX1 RRM RbFoxmut (Fox-RRM*) (Homo sapiens, UniProt Q9NWB1 109-208, R118D;E147R;N151S;E152T)
T1 sequence: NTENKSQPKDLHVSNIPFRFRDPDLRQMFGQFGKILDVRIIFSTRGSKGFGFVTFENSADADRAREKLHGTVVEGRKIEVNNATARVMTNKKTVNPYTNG

B1: CCUGCAA (DNA:RNA)
RNA: GGGAGACCGGAAUUCAGAUUGUCCCCUGCAAUUAAAUCCCGUCGUAGCCACCA
DNA 1: CAATCTGAATTCCGGTCTCCC
DNA 2: TGGTGGCTACGACGGGATT
B2: AAGAAUG (DNA:RNA)
RNA: GGGAGACCGGAAUUCAGAUUGUCCAAGAAUGUUAAAUCCCGUCGUAGCCACCA
DNA 1: CAATCTGAATTCCGGTCTCCC
DNA 2: TGGTGGCTACGACGGGATT
B3: GACUUUA (DNA:RNA)
RNA: B2 RNA with A25G, G27C, A28U, A29U, G31A
DNA 1: CAATCTGAATTCCGGTCTCCC
DNA 2: TGGTGGCTACGACGGGATT
B4: UAGUUUC (DNA:RNA)
RNA: B2 RNA with A25U, A28U, A29U, G31C
DNA 1: CAATCTGAATTCCGGTCTCCC
DNA 2: TGGTGGCTACGACGGGATT
B5: CGGCUUA (DNA:RNA)
RNA: B2 RNA with A25C, A26G, A28C, A29U, G31A
DNA 1: CAATCTGAATTCCGGTCTCCC
DNA 2: TGGTGGCTACGACGGGATT
B6: GGAGUAA (DNA:RNA)
RNA: B1 RNA with C25G, C26G, U27A, C29U
DNA 1: CAATCTGAATTCCGGTCTCCC
DNA 2: TGGTGGCTACGACGGGATT
B7: UAGGUGU (DNA:RNA)
RNA: B2 RNA with A25U, A28G, A29U, U30G, G31U
DNA 1: CAATCTGAATTCCGGTCTCCC
DNA 2: TGGTGGCTACGACGGGATT
B8: UCGAACA (DNA:RNA)
RNA: B2 RNA with A25U, A26C, U30C, G31A
DNA 1: CAATCTGAATTCCGGTCTCCC
DNA 2: TGGTGGCTACGACGGGATT
B9: GCAGACA (DNA:RNA)
RNA: B1 RNA with C25G, U27A, C29A, A30C
DNA 1: CAATCTGAATTCCGGTCTCCC
DNA 2: TGGTGGCTACGACGGGATT

The assay addresses T1, RBFOX1 RRM RbFoxmut (Fox-RRM*). In words: EMSA; HiTS-Eq, 1 nM pool, 10 min; buffer printed only for the single-RNA assays: 10 mM Tris pH 7.5, 150 mM NaCl, 3.4 mM EDTA, 0.001% NP-40, 30 C. Conditions: tags: His6 N-terminal (pET28a); label: 5' 32P. The essentials:
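Purified RbFox RRM, wild type or mutant, was incubated for 10 min in 50 µL with 1 nM of a 5′-radiolabelled RNA pool carrying 7 randomized nucleotides, whose flanks were annealed to DNA oligonucleotides, over a series of increasing protein concentrations. Unbound RNA was resolved on 8% native PAGE, cut out, reverse-transcribed, barcoded by PCR and sequenced on an Illumina HiSeq 2500. Relative association constants were derived from changes in read counts for each RNA species versus the control reaction and normalised to the cognate motif.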
(In general: A gel shift assay detects complexes by their altered migration in electrophoresis.)
As to B1, the binding signal is 0.0957 KA relative to UGCAUGU.
With B2, the binding signal is 1.07 KA relative to UGCAUGU.
The figure for B3 is 0.123 KA relative to UGCAUGU; for B4 it is 0.126 KA relative to UGCAUGU.
To B5 belongs 0.112 KA relative to UGCAUGU.
The figure for B6 is 0.0983 KA relative to UGCAUGU.
For the molecule B7, the binding signal was 0.155 KA relative to UGCAUGU.
The figure for B8 is 0.0726 KA relative to UGCAUGU; for B9 it is 0.0764 KA relative to UGCAUGU.
